{"source": "the BET-seq Pho4 binding data (Le et al. 2018)", "note": "The other results are listed elsewhere or left out. Values were computed here from the reads of four pooled replicates and scatter widely.", "data": [{"biological_target": "T1, Pho4 (S. cerevisiae) (UniProt P07270)", "T1 sequence": "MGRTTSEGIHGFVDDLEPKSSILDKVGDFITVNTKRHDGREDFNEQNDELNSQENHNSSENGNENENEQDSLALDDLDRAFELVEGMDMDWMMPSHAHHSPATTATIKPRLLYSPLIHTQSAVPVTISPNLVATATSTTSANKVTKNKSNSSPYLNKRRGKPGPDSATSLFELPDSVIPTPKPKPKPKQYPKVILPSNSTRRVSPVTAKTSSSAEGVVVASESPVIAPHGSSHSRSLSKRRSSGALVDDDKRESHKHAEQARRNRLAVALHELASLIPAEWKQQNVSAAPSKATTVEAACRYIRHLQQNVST", "assay": "relative binding free energy (BET-seq); higher = weaker binding", "settings": "reference: library average", "units": {"relative binding free energy": "kcal/mol"}, "values": [{"sequence": "GCGAGCACGTGGGCGT", "relative binding free energy": -0.23}, {"sequence": "TCATGCACGTGTTTGT", "relative binding free energy": -0.09}, {"sequence": "AGTCACACGTGTGGTT", "relative binding free energy": -0.08}, {"sequence": "GTATCCACGTGGGGAT", "relative binding free energy": 0.05}, {"sequence": "TGGAGCACGTGTGGTG", "relative binding free energy": 0.04}, {"sequence": "TCGGTCACGTGCTGTG", "relative binding free energy": 0.01}, {"sequence": "AATCGCACGTGGCAGG", "relative binding free energy": 0}, {"sequence": "GGCACCACGTGGGTGG", "relative binding free energy": -0.22}, {"sequence": "TGATTCACGTGCTTTG", "relative binding free energy": 0.16}, {"sequence": "TTGGTCACGTGGTTTA", "relative binding free energy": 0.16}, {"sequence": "GGAATCACGTGGGTTG", "relative binding free energy": 0.08}, {"sequence": "GCTATCACGTGTTAGT", "relative binding free energy": 0.19}, {"sequence": "CGTATCACGTGTGTTT", "relative binding free energy": 0.19}, {"sequence": "GGTGACACGTGTGTAT", "relative binding free energy": 0.06}, {"sequence": "TTCGTCACGTGATCGG", "relative binding free energy": 0.19}, {"sequence": "CAGATCACGTGGTGGT", "relative binding free energy": 0.14}, {"sequence": "TCAAGCACGTGGTGGG", "relative binding free energy": -0.3}, {"sequence": "CGGAGCACGTGGATGT", "relative binding free energy": -0.07}, {"sequence": "AGAATCACGTGAAGTG", "relative binding free energy": 0.33}, {"sequence": "TGATGCACGTGTCGGC", "relative binding free energy": -0.01}, {"sequence": "TTTGTCACGTGTCGCT", "relative binding free energy": 0.12}, {"sequence": "GATATCACGTGTTGTA", "relative binding free energy": 0.14}, {"sequence": "AATATCACGTGAGGAT", "relative binding free energy": 0.31}, {"sequence": "TTGATCACGTGCCGTG", "relative binding free energy": 0.17}, {"sequence": "GAGTCCACGTGAGGTG", "relative binding free energy": 0.22}, {"sequence": "TTGTTCACGTGCCTGG", "relative binding free energy": 0.25}, {"sequence": "TTAGCCACGTGTTACT", "relative binding free energy": 0.08}, {"sequence": "ATACGCACGTGGGGTA", "relative binding free energy": -0.25}, {"sequence": "TGGTGCACGTGCTTAG", "relative binding free energy": -0.03}, {"sequence": "GGGGCCACGTGTGTCG", "relative binding free energy": -0.05}, {"sequence": "CGATCCACGTGGTGGG", "relative binding free energy": -0.14}, {"sequence": "GGCTTCACGTGTGGGT", "relative binding free energy": 0.27}, {"sequence": "TTATGCACGTGTGTTC", "relative binding free energy": 0.12}, {"sequence": "TGTGCCACGTGACGGA", "relative binding free energy": 0.11}, {"sequence": "TCAGTCACGTGTGAAT", "relative binding free energy": 0.21}, {"sequence": "TAGTCCACGTGTTAAT", "relative binding free energy": 0.06}, {"sequence": "TGTATCACGTGGATTT", "relative binding free energy": 0.11}, {"sequence": "CGGGTCACGTGTGAAT", "relative binding free energy": 0.23}, {"sequence": "TTGATCACGTGAGTAA", "relative binding free energy": 0.44}, {"sequence": "TGAATCACGTGCTAGG", "relative binding free energy": 0.22}, {"sequence": "GGGTGCACGTGTTGTC", "relative binding free energy": -0.03}, {"sequence": "TTTGACACGTGGGAAT", "relative binding free energy": 0.05}, {"sequence": "CATGGCACGTGTTAGG", "relative binding free energy": 0.08}, {"sequence": "GGGAACACGTGGAAAG", "relative binding free energy": 0.1}, {"sequence": "GTAGACACGTGATTAG", "relative binding free energy": 0.18}, {"sequence": "GGCAGCACGTGTGGCG", "relative binding free energy": -0.04}, {"sequence": "TTTCGCACGTGATAGG", "relative binding free energy": -0.03}, {"sequence": "AAAGGCACGTGTGTTT", "relative binding free energy": 0.02}, {"sequence": "ATAGTCACGTGCGGTG", "relative binding free energy": 0.06}, {"sequence": "TGTATCACGTGGTGCA", "relative binding free energy": -0.09}, {"sequence": "AAGAGCACGTGATGGT", "relative binding free energy": 0.02}, {"sequence": "TGGGGCACGTGCGTGC", "relative binding free energy": -0.2}, {"sequence": "TCATGCACGTGGCTTG", "relative binding free energy": 0.02}, {"sequence": "TTTTGCACGTGCTGCG", "relative binding free energy": -0.06}, {"sequence": "ATCGACACGTGGTAGT", "relative binding free energy": -0.04}, {"sequence": "AGTCACACGTGGTAGT", "relative binding free energy": 0.06}, {"sequence": "GTGAGCACGTGGCGTC", "relative binding free energy": -0.01}, {"sequence": "TACATCACGTGAATGT", "relative binding free energy": 0.31}, {"sequence": "GTCTTCACGTGTTATT", "relative binding free energy": 0.37}, {"sequence": "ATTTACACGTGCGAGG", "relative binding free energy": 0.21}, {"sequence": "TGTAACACGTGTGATT", "relative binding free energy": 0.1}, {"sequence": "TCGTGCACGTGGGGCC", "relative binding free energy": -0.11}, {"sequence": "TGGTACACGTGTCGAT", "relative binding free energy": 0.19}, {"sequence": "GGAGTCACGTGAGCTT", "relative binding free energy": 0.24}, {"sequence": "TTTGGCACGTGTGCAA", "relative binding free energy": -0.15}, {"sequence": "GGGGTCACGTGGAATC", "relative binding free energy": 0.27}, {"sequence": "AGGGGCACGTGAGGTG", "relative binding free energy": 0.06}, {"sequence": "GAGGTCACGTGTGATT", "relative binding free energy": 0.18}, {"sequence": "TGGGACACGTGTGAGG", "relative binding free energy": 0.11}, {"sequence": "GGTTGCACGTGCGGAA", "relative binding free energy": 0.11}, {"sequence": "TTTATCACGTGGATTT", "relative binding free energy": 0.25}, {"sequence": "AGGATCACGTGTTTTC", "relative binding free energy": 0.23}, {"sequence": "ATCCTCACGTGTTTGT", "relative binding free energy": 0.09}, {"sequence": "TTGGACACGTGTGAGA", "relative binding free energy": 0.19}, {"sequence": "GGGTTCACGTGAGACG", "relative binding free energy": 0.38}, {"sequence": "CGTTGCACGTGATTGC", "relative binding free energy": 0.33}, {"sequence": "GATTTCACGTGATTGG", "relative binding free energy": 0.36}, {"sequence": "GTGGTCACGTGGGGGT", "relative binding free energy": 0.06}, {"sequence": "ATGTTCACGTGTGAAG", "relative binding free energy": 0.3}, {"sequence": "TCATGCACGTGGGTTA", "relative binding free energy": -0.2}, {"sequence": "TGGGACACGTGTGTTT", "relative binding free energy": 0.18}, {"sequence": "TTAGACACGTGATTTG", "relative binding free energy": 0.1}, {"sequence": "GATAGCACGTGTAGGA", "relative binding free energy": 0.08}, {"sequence": "GGGATCACGTGTGAGA", "relative binding free energy": 0.29}, {"sequence": "GTCTCCACGTGTTTTG", "relative binding free energy": 0.12}, {"sequence": "CATGCCACGTGTAGGG", "relative binding free energy": -0.03}, {"sequence": "ATGAACACGTGGTTTA", "relative binding free energy": 0.1}, {"sequence": "GCTGCCACGTGTGGGA", "relative binding free energy": 0.17}, {"sequence": "TAAGTCACGTGTCGTT", "relative binding free energy": 0.15}, {"sequence": "GCCGGCACGTGGTTGT", "relative binding free energy": -0.01}, {"sequence": "AAAGGCACGTGCGTTG", "relative binding free energy": -0.13}, {"sequence": "TGAATCACGTGGTTCG", "relative binding free energy": 0.18}, {"sequence": "CGGGACACGTGGTGGC", "relative binding free energy": -0.03}, {"sequence": "GGGCACACGTGGTCGT", "relative binding free energy": 0.04}, {"sequence": "GTATGCACGTGGAAGC", "relative binding free energy": 0.14}, {"sequence": "GTTAGCACGTGCCTGG", "relative binding free energy": 0}, {"sequence": "AAGAGCACGTGGTTGG", "relative binding free energy": -0.23}, {"sequence": "TTGAACACGTGCATGT", "relative binding free energy": 0.03}, {"sequence": "TAATGCACGTGGGAAG", "relative binding free energy": -0.16}, {"sequence": "GTAGGCACGTGTTGTC", "relative binding free energy": -0.06}, {"sequence": "ACATTCACGTGATTGT", "relative binding free energy": 0.29}, {"sequence": "TAATTCACGTGTGGAA", "relative binding free energy": 0.09}, {"sequence": "AAGTGCACGTGGGAAA", "relative binding free energy": -0.07}, {"sequence": "GGTGCCACGTGATAGT", "relative binding free energy": 0.14}, {"sequence": "GGAGGCACGTGGGCTT", "relative binding free energy": -0.12}, {"sequence": "TAGCTCACGTGATTGT", "relative binding free energy": 0.32}, {"sequence": "GAGTGCACGTGGTGCT", "relative binding free energy": 0.06}, {"sequence": "ATGTACACGTGGTCGT", "relative binding free energy": -0.06}, {"sequence": "TAGATCACGTGATGTG", "relative binding free energy": 0.19}, {"sequence": "GAATGCACGTGTTTAG", "relative binding free energy": 0.13}, {"sequence": "GCGTTCACGTGGTTTA", "relative binding free energy": 0.16}, {"sequence": "TTATCCACGTGTTCTT", "relative binding free energy": 0.13}, {"sequence": "TTAGACACGTGAGATT", "relative binding free energy": 0.34}, {"sequence": "AGGTGCACGTGCAGAG", "relative binding free energy": -0.07}, {"sequence": "GGTGGCACGTGTCACG", "relative binding free energy": -0.11}]}]}
